{"source": "PubChem BioAssay AID463173", "about": "(ICCB-Longwood Screening Facility, Harvard Medical School, 2010)", "note": "About 1,700 (3.3%) of roughly 52,000 compounds were called active. Rule as the data show it: active = survival mostly below about 52% (no sharp cut-off); inactive = mostly above about 56%. This is one part of the list.", "data": [{"tested_on": "Wild type", "assay": "S. aureus survival, RN4220 and DeltatarO strains – OD600, teichoic acid synthesis inhibitors, primary screen (AID 463173)", "conditions": "S. aureus RN4220 wild type/DeltatarO growth, OD600, 18 h, active compounds read low, screened at 18.75 µg/mL (by protocol)", "values": [{"smiles": "Cc1ccc(Cn2c(=O)n(-c3ccccc3)c(=O)c3ccc(C(=O)NCc4ccco4)cc32)cc1", "survival": "inactive: 88%"}, {"smiles": "C=Cc1ccc(Cn2c(C(=O)O)c(CNCc3cccs3)c3ccc(C)cc32)cc1", "survival": "inactive: 71%"}, {"smiles": "S=c1[nH]c2ccccc2n1CCOc1ccccc1", "survival": "inactive: 113%"}, {"smiles": "Cn1c(SCc2ccc(F)cc2)nc2c([nH]c3ccccc32)c1=O", "survival": "inactive: 79%"}, {"smiles": "O=C(CCSCc1cnn(-c2ccccc2)c1-n1cccc1)NCc1ccccc1F", "survival": "inactive: 77%"}, {"smiles": "CCOc1ccc(NC(=O)c2cc3c(-c4ccccc4F)nn(C)c3s2)cc1", "survival": "inactive: 124%"}, {"smiles": "CC(C)(C)OC(=O)N1CCC(c2c(C(=O)NCc3ccc(F)cc3)cnn2-c2ccc(F)cc2)CC1", "survival": "active: -6%"}, {"smiles": "COc1cccc(C(=O)N(Cc2sccc2C)C2CCS(=O)(=O)C2)c1", "note": "(stereo unspecified)", "survival": "inactive: 84%"}, {"smiles": "CCOC(=O)c1c(C)oc2nc(C)nc(N3CCN(c4ccc(C(C)=O)cc4)CC3)c12", "survival": "inactive: 91%"}, {"smiles": "COc1ccc2cc3cc(C(=O)N4CCN(c5ccc(C(C)=O)cc5)CC4)sc3nc2c1Cl", "survival": "inactive: 75%"}, {"smiles": "Cc1ccc(-c2cn3c(n2)sc2cc(C(=O)NCCCN4CCCCC4)ccc23)cc1", "survival": "active: -1%"}, {"smiles": "COc1ccc(C(=O)Nc2cc(-c3cccc(C)c3)nn2-c2ccccc2)cc1", "survival": "inactive: 124%"}, {"smiles": "COc1ccc(OCC2c3cc(OC)c(OC)cc3CCN2C(=O)c2ccc(F)cc2)cc1", "note": "(stereo unspecified)", "survival": "inactive: 128%"}, {"smiles": "CCN(CC)CCNC(=O)c1sc2nc3n(c(=O)c2c1C)CCCCC3", "survival": "inactive: 87%"}, {"smiles": "O=S(=O)(NCc1nc2cccnc2n1Cc1ccc(F)cc1)c1ccc2c(c1)CCCC2", "survival": "inactive: 69%"}, {"smiles": "CCOC(=O)c1ccc(NC(=O)c2c(NCc3cccs3)sc3c2CCCCC3)cc1", "survival": "inactive: 126%"}, {"smiles": "Nc1nc2sc3c(c2cc1C(=O)N1CCOCC1)CCCC3", "survival": "inactive: 103%"}, {"smiles": "Cc1ccc(-c2nc(C#N)c(NCCN3CCCCC3)o2)cc1", "survival": "inactive: 100%"}, {"smiles": "O=S(=O)(NCCc1csc2nc(-c3ccc(F)cc3)nn12)c1ccc(Br)cc1", "survival": "inactive: 71%"}, {"smiles": "Cc1cc(NC(=O)Cn2c(=O)nc(-c3ccccc3F)c3cc(Cl)ccc32)ccc1Br", "survival": "inactive: 147%"}, {"smiles": "CC1=C(C(=O)Nc2ccccc2C)C(c2ccncc2)n2nc(SCc3ccccc3)nc2N1", "note": "(stereo unspecified)", "survival": "inactive: 84%"}, {"smiles": "COc1cc(C(=O)N2CCc3ccccc32)cc(OC)c1OC", "survival": "inactive: 115%"}, {"smiles": "Cc1cc(S(=O)(=O)N2CCOCC2)ccc1N=Cc1c(C)[nH]n(-c2ccc(Cl)cc2)c1=O", "survival": "inactive: 101%"}, {"smiles": "Cc1cccc(Cn2c(CN3CCC(C(=O)NCc4cccnc4)CC3)cc3ccccc32)c1", "survival": "inactive: 71%"}, {"smiles": "Cc1ccc(NC(=O)Cn2c(=O)n(-c3ccc(Cl)c(Cl)c3)c(=O)c3c(C)c(C)sc32)c(C)c1", "survival": "inactive: 86%"}, {"smiles": "O=C(O)CSc1nnc(-c2ccccc2)n1-c1ccccc1", "survival": "inactive: 108%"}, {"smiles": "CCN1CCN(c2cc(C)c3cc(NC(=O)c4cccc(C(F)(F)F)c4)ccc3n2)CC1", "survival": "inactive: 79%"}, {"smiles": "COc1cn(CC(=O)Nc2ccc(F)cc2)c(CN2CCCCC2)cc1=O", "survival": "inactive: 72%"}, {"smiles": "COc1cccc(CSc2nc3n(n2)C(c2cccs2)C(C(=O)Nc2ccccc2C)=C(C)N3)c1", "note": "(stereo unspecified)", "survival": "inactive: 71%"}, {"smiles": "CCOC(=O)c1c(N)n(-c2ccc(Cl)c(Cl)c2)c2nc3ccccc3nc12", "survival": "inactive: 77%"}, {"smiles": "Cc1cc(C)nc(SCCSc2nc(C)cc(C)n2)n1", "survival": "inactive: 99%"}, {"smiles": "COc1nc(N2CCCCCC2)nc(N2CCCCCC2)n1", "survival": "inactive: 104%"}, {"smiles": "CCOC(=O)c1ccc(NC(=O)CC2C(=O)N(c3cccc(OC)c3)C(=O)N2C2CCCCC2)cc1", "note": "(stereo unspecified)", "survival": "inactive: 75%"}, {"smiles": "O=S(=O)(N1CCCCC1)N1CCN(c2ccc(F)cc2)CC1", "survival": "inactive: 116%"}, {"smiles": "Cc1ccc(OCCn2cc(C(=O)C3CCCCC3)c3ccccc32)cc1", "survival": "active: 1%"}, {"smiles": "COc1ccc(C(c2nnnn2C2CCCCC2)N2CCC(C)CC2)cc1OC", "note": "(stereo unspecified)", "survival": "inactive: 104%"}, {"smiles": "COC(=O)c1ccc(Cl)cc1NC(=O)N1CCCn2nc(C)cc21", "survival": "inactive: 128%"}, {"smiles": "COc1cc(OC)c(NC(=O)CCCn2nc(C)c3sc4ccccc4c3c2=O)cc1Cl", "survival": "inactive: 60%"}, {"smiles": "COc1nc(-c2ccc(C)cc2)ccc1-c1noc(-c2ccccc2Br)n1", "survival": "active: 2%"}, {"smiles": "Cc1ccc(C(c2nnnn2Cc2ccccc2)N2CCC(C)CC2)cc1", "note": "(stereo unspecified)", "survival": "inactive: 101%"}, {"smiles": "O=c1c2cccnc2n(Cc2ccccc2F)c(=O)n1Cc1ccccc1Cl", "survival": "inactive: 86%"}, {"smiles": "Cc1ccc(C)c(N2CCN(C(=O)CN3CCSc4ccc(S(=O)(=O)N(C)C)cc43)CC2)c1", "survival": "inactive: 73%"}, {"smiles": "CC(=O)Nc1nonc1-c1nnc(SCC(=O)Nc2cc(C)cc(C)c2)n1C", "survival": "inactive: 84%"}, {"smiles": "COc1ccc(-c2nc3sc(-c4ccc(OC)cc4)nc3s2)cc1", "survival": "inactive: 109%"}, {"smiles": "COc1cccc(NC(=O)/C(C#N)=C\\c2cn(Cc3ccc(C)cc3)c3ccccc23)c1", "survival": "inactive: 105%"}, {"smiles": "O=C(c1ccc(C(F)(F)F)cc1)N1CCC(c2nc(-c3ccc(S(=O)(=O)N4CCCC4)cc3)no2)CC1", "survival": "inactive: 87%"}, {"smiles": "Cc1oc2ncn(CC(C)C)c(=O)c2c1C(=O)N1CCN(c2ccc(F)cc2)CC1", "survival": "inactive: 57%"}, {"smiles": "COc1ccccc1CNc1ccc(-c2nc(C)no2)cc1[N+](=O)[O-]", "survival": "inactive: 69%"}, {"smiles": "COc1ccc(-c2oc3ncn4nc(-c5ccccc5Br)nc4c3c2-c2ccc(OC)cc2)cc1", "survival": "inactive: 60%"}, {"smiles": "Cc1ccc2[nH]c3c(=O)n(CC(=O)N(C)c4cc(Cl)ccc4C)ncc3c2c1", "survival": "inactive: 67%"}, {"smiles": "O=C(c1ccc2c(c1)N(Cc1cccc(Cl)c1)C(=O)c1ccccc1S2(=O)=O)N1CCCCC1", "survival": "inactive: 79%"}, {"smiles": "Cc1ccc(C)c(NC(=O)Cn2cc(C(=O)C3CCCCC3)c3ccccc32)c1", "survival": "inactive: 67%"}, {"smiles": "COc1cccc(NC(=O)c2oc3ccccc3c2NC(=O)c2ccc(C(F)(F)F)cc2)c1", "survival": "inactive: 60%"}, {"smiles": "O=C(CN1CCCN(Cc2ccc(Cl)cc2)S1(=O)=O)Nc1ccccc1F", "survival": "inactive: 53%"}, {"smiles": "COc1cccc2c1Oc1ncccc1N(C(=O)CCC(=O)NCc1ccc(N(C)C)cc1)C2", "survival": "inactive: 65%"}, {"smiles": "COc1ccc(-n2c(=O)c3c4c(sc3n(Cc3ccccc3)c2=O)CN(C(C)=O)CC4)cc1OC", "survival": "inactive: 84%"}]}]}
